Reference: PubChem BioAssay AID504832 (National Center for Advancing Translational Sciences (NCATS), 2011)
“And” between values parts separate entries of the source, which are not always exact repeats. Equal entries are not always repeated. Out of some 310,000 compounds screened, about 18,000 (5.8%) were called active. Inconclusive means that the source gave no clear call. Such entries were picked first, then a sample of the others. Calls follow the shape of the dose curve; as a rule, active = well fitted inhibition curve with a large enough effect; inconclusive = small, poorly fitted or top-dose-only effect, or another doubt; inactive = no such curve, though single readings can be large or run the other way. No potency is given beside an inconclusive call; the fits are too rough.

Experiment: Primary qHTS for delayed death inhibitors of the malarial parasite plastid, 48 hour incubation
Details: P. falciparum luciferase growth in erythrocytes; series mostly up to 28.7 µM
Outline: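 Luminescence readout; reporter = integrated firefly luciferase in P. falciparum. RBC culture at 2% hematocrit, 0.1% parasitemia final, 37 C/5% CO2; decreased signal taken as growth inhibition.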
Potency is read from the fitted curve at half-maximal effect; tags tell the direction and shape of the fitted curve.

Compound | Potency
O=C(c1ccccc1Oc1ccc(C(F)(F)F)cc1[N+](=O)[O-])N1CCOCC1 | inactive
COc1cc(C(C)=O)ccc1Oc1ncnc2c1cnn2-c1ccc(C)c(C)c1 | inconclusive [inhibitor, partial curve, poor fit]
COc1ccc(Cl)cc1NC(=O)CN(C)C(=O)Cn1[nH]c(=O)c2ccccc2c1=O | inconclusive [inhibitor, single point]
CC(=Nc1ccc2c(c1)CCC2)c1c(O)n(C2CCCCC2)c(=O)[nH]c1=O | inactive
C[C@@H](NC(=O)C1(c2ccccc2)CCN(C(=O)OC(C)(C)C)CC1)C(=O)N[C@@H](Cc1ccccc1)C(=O)O | inconclusive [inhibitor, partial curve, poor fit]
COc1cccc(N2CCN(c3ccc4nnc(CCC(=O)Nc5ccc(F)cc5)n4n3)CC2)c1 | inconclusive [inhibitor, single point]
Cc1ccc(N(Cc2ccccc2)C(=O)c2cc(S(=O)(=O)N3CCOCC3)ccc2N2CCCC2)cc1 | active: 2.62 µM
COc1ccc(C(=O)Nc2ccccc2NC(=O)c2ccco2)c(OC)c1 | inconclusive [inhibitor, partial curve, poor fit]
COC(=O)c1cc(OC)c(OC)cc1NC(=S)N1CCN(C/C=C/c2ccccc2)CC1 | inconclusive [inhibitor, partial curve]
S=C(NCCc1ccccc1)N1CCn2cccc2C1c1cccnc1 (stereo unspecified) | active: 11.7 µM
CC(NCC(O)COc1ccc2ccccc2c1)c1ccccc1 (stereo unspecified) | active: 9.28 µM
COc1ccc(C(=S)N2CCN(c3ccccc3C)CC2)cc1 | inconclusive [inhibitor, single point]
S=C(NCCN1CCOCC1)NC1CCCC1 | inactive
Cc1cccc2sc(NNC(=O)c3cc(=O)c4ccccc4o3)nc12 | inconclusive [inhibitor, partial curve, poor fit]
COc1ccc(S(=O)(=O)N2CCC(n3cnc4ccccc43)CC2)cc1 | inactive
CC(=O)N1CCC(=NNc2ccnc3cc(Cl)ccc23)CC1 | active: 1.85 µM
CC(=O)N/C(=C\c1ccccc1)C(=O)OC(C)C(=O)c1ccccc1 (stereo unspecified) | inactive
CCn1c(CCc2ccccc2)nnc1SCC(N)=O | inconclusive [inhibitor, full curve, poor fit]
COc1ccc(C(=O)NC2CCN(CC(=O)Nc3cccc(OC)c3)CC2)cc1 | inconclusive [inhibitor, partial curve, poor fit]
Cc1cccnc1NC(=S)NC(=O)/C=C/c1ccco1 | inactive
COc1ccc(CN2CN(C3CCCC3)CSC2=S)cc1 | inconclusive [inhibitor, partial curve, poor fit]
COC(=O)[C@@H]1C[C@H]2CC[C@H](O)C[C@H]2N1Cc1ccc(C(C)(C)C)cc1 | inconclusive [inhibitor, single point]

Compound | Potency
CN1/C(=C\C(=O)COC(=O)CN2C(=O)C3CC=CCC3C2=O)C(C)(C)c2ccccc21 (stereo unspecified) | inconclusive [inhibitor, partial curve, poor fit]
Cc1ccccc1SCC(=O)Nc1cc(S(=O)(=O)N2CCOCC2)ccc1N1CCOCC1 | active: 8.28 µM
COC(=O)C1=C(C)NC(C)=C(C(=O)OCCN(C)Cc2ccccc2)C1c1cccc([N+](=O)[O-])c1 (stereo unspecified) | active: 1.69 µM and active: 1.65 µM
CCOC(=O)C1=C(C)Nc2ccccc2N=C1NC(=O)c1cc(C)on1 | inconclusive [inhibitor, single point]
COCc1ccc(CN2CCCC(C(=O)Nc3ccc(-c4cscn4)cc3)C2)o1 (stereo unspecified) | inconclusive [inhibitor, single point]
N#CCC(=O)N/N=C/c1cn(Cc2ccc3ccccc3c2)c2ccccc12 | inconclusive [inhibitor, partial curve, poor fit]
COc1ccc(N2CCN(C(=O)c3ccc(Cl)c(S(=O)(=O)N4CCCC4)c3)CC2)cc1 | inconclusive [inhibitor, single point]
O=C(O)CC(c1ccc(Cl)cc1)N1Cc2ccccc2C1=O (stereo unspecified) | inconclusive [inhibitor, single point]
COc1ccc(NC(=O)CN(C)S(=O)(=O)c2ccc3[nH]c(=O)oc3c2)cc1 | inactive
COc1ccc(/C=C/C(=O)OCC(=O)N2CC(=O)Nc3ccccc32)cc1 | inactive
CCC(C)c1ccc(NC(=O)C2CCCN(c3ncccn3)C2)cc1 (stereo unspecified) | inactive
Cc1ccc(C(=O)N/N=C\c2ccc(Br)o2)o1 | inconclusive [inhibitor, single point]
CCOC(=O)c1c(-c2ccc(C)o2)csc1NC(=O)COC(=O)c1cccs1 | inconclusive [inhibitor, full curve, poor fit]
CCOC(=O)c1cc(NC(=O)c2ccc(C)cc2)c(=O)oc1C(F)(F)F | inconclusive [inhibitor, full curve, poor fit]
CN(C)CCCNS(=O)(=O)c1ccc(NC2CCCCCC2)c([N+](=O)[O-])c1 | inconclusive [inhibitor, single point]
CCC(=O)N1CCc2cc(S(=O)(=O)NC(Cc3ccccc3)C(=O)Nc3nccs3)ccc21 (stereo unspecified) | inconclusive [inhibitor, partial curve]
CCN(CC)CCN1C(=O)c2oc3ccc(F)cc3c(=O)c2C1c1ccncc1 (stereo unspecified) | inconclusive [inhibitor, single point]
Fc1ccc2c(c1)C(c1ccc(N3CCOCC3)cc1)=NNC(c1cccs1)=N2 | inconclusive [inhibitor, single point]
O=C(Cc1ccc(-c2ccccc2)cc1)Nc1ccccc1 | inactive
COc1ccc(N2CCN(CC(=O)c3ccc(Cl)cc3)CC2)cc1 | inconclusive [inhibitor, single point]
O=C(NCC1CCCO1)/C(=C/c1cn(-c2ccccc2)nc1-c1cccnc1)NC(=O)c1ccccc1 (stereo unspecified) | inconclusive [inhibitor, single point]
CC(CN1CCCCC1)OC(=O)C(C)(c1ccccc1)c1ccccc1 (stereo unspecified) | inconclusive [inhibitor, single point]

Compound | Potency
C=C1CCC2C(C)(C)[C@@H](O)CC[C@@]2(C)[C@@H]1COc1ccc2ccc(=O)oc2c1 (stereo partly specified) | active: 11.7 µM
Cc1ccc(C)c(NC(=O)CN(C)C(=O)c2ccccc2Cc2ccccc2)c1 | inconclusive [inhibitor, single point]
O=C(COc1ccc(Cl)cc1)NCc1cn2cc(Cl)ccc2n1 | inactive
COC(=O)c1ccc(/C=N/NC(=O)C(=O)N2CCCCCC2)cc1 | inactive
Cc1ccc(N2C(=O)NC(=O)C(CCc3ccncc3)(Cc3cccc(Cl)c3Cl)C2=O)cc1 (stereo unspecified) | inconclusive [inhibitor, partial curve, poor fit]
C=CCN(c1ccccc1)S(=O)(=O)c1ccc2c(c1)NC(=O)C(C)S2 (stereo unspecified) | inconclusive [inhibitor, partial curve]
COc1ccc(Cn2c(=S)[nH]c3cc(C(=O)N4CCCCC4)ccc3c2=O)cc1 | inconclusive [inhibitor, partial curve, poor fit]
COc1ccc(NC(=O)C2CCCN2S(=O)(=O)c2ccc3c(c2)CC(C)N3C(C)=O)cc1OC (stereo unspecified) | inconclusive [inhibitor, partial curve, poor fit]
Cc1ccc(N(Cc2ccccc2)C(=O)c2ccc(F)c(S(=O)(=O)N3CCOCC3)c2)cc1 | inconclusive [inhibitor, partial curve]
CCOc1cc(C(=O)Nc2cc3c(cc2N2CCCC2)n(C)c(=O)n3C)cc(OCC)c1OCC | inconclusive [inhibitor, partial curve]
C=CCNC(=O)COC(=O)c1ccc(Cl)c(S(=O)(=O)N(Cc2ccccc2)c2ccccc2)c1 | inconclusive [inhibitor, single point]
O=C(c1cc2cc(Cl)ccc2o1)N1CCCC1 | inconclusive [inhibitor, single point]
CCn1c(SCC(=O)Nc2ccc(C)cc2)nc2nc3c(cc2c1=O)CCCC3 | inconclusive [inhibitor, partial curve, poor fit]
CCOC(=O)c1ccc(NCCc2ccc(OC)c(OC)c2)c(N)c1 | active: 9.28 µM
Cc1ccc(-c2ocnc2C(=O)N2CCOCC2)cc1 | inactive
COc1ccc(-c2nnc(-c3cc4c(ccc5ccccc54)oc3=O)o2)cc1 | inactive
Cc1ccc(NC(=O)C(Nc2ccccc2)c2ccccc2)cc1 (stereo unspecified) | inactive
Cc1cc(C)cc(OCC(=O)NC2CCCc3ccccc32)c1 (stereo unspecified) | inconclusive [inhibitor, partial curve, poor fit]
O=C(NC(Nc1nc2ccc([N+](=O)[O-])cc2s1)(C(F)(F)F)C(F)(F)F)c1ccccc1Cl | active: 1.47 µM
CCc1ccc2[nH]c(O)c(N=Nc3nc(-c4ccccc4)cs3)c2c1 | inactive
Cc1ccc(S(=O)(=O)N2CCN(C(=O)CSc3ccc(Cl)cc3)CC2)cc1 | inconclusive [inhibitor, partial curve, poor fit]
O=Cc1ccc(Oc2cccc(C(F)(F)F)c2)nc1 | inconclusive [inhibitor, single point]
